Assay results published in the supplement of paper PMC3334620.
The full ranking holds about 33,000 sequences; the median of “E-score (-0.5 to 0.5)” is about -0.017, and the highest 2% start at about 0.3. The list shows a part of the results.

What follows are sequences tested against T1, Sut1 (UniProt P53032) (assay: PBM E-score (8-mer binding enrichment) (E-score (-0.5 to 0.5)); higher = stronger / more preferred TF binding; most listed sequences are background and not binding sites). Conditions: protein concentration: 200 nM; construct: GST-full length.
T1 sequence: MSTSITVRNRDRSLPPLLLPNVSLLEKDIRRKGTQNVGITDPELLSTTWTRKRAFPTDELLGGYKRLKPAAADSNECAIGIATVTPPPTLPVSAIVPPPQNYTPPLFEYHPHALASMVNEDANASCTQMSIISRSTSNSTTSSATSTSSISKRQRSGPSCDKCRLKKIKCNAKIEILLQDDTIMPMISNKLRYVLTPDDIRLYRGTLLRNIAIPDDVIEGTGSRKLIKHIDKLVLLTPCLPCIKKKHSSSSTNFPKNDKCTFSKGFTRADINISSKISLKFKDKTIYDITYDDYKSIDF
How it was run: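 Full-length yeast transcription factors or their DNA-binding domains, GST-tagged and expressed with PURExpress, were applied at about 100-200 nM to universal all-10-mer Agilent arrays. These arrays had been made double-stranded by primer extension on fresh or once-stripped slides. Detection used fluorescent anti-GST, normalisation used masliner, and E-scores for ungapped eight-base words pooled with reverse complements came from the Universal PBM Analysis Suite.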
In the case of GCAATCGA, the “PBM E-score” value is reported as -0.0369.
With ATCCTCAA the “PBM E-score” value was -0.0483.
In the case of CAGCCGCA, the “PBM E-score” value is reported as -0.257.
With ACCTTTGA the “PBM E-score” value was 0.0359.
With CTCGTTGA the “PBM E-score” value was -0.0496.
With TCCAATCA the “PBM E-score” value was -0.0517.
For AAATTAGA, the “PBM E-score” value was 0.182.
With CCATGTGA the “PBM E-score” value was -0.182.
With CACCGGAA the “PBM E-score” value was 0.361.
With GAAAGTCC the “PBM E-score” value was 0.326.
ATTGACAG was tested, and the “PBM E-score” value was -0.029.
With GAATTCAC the “PBM E-score” value was 0.0262.
For GTATCCAA, the “PBM E-score” value was -0.00514.
With GGAGGACC the “PBM E-score” value was -0.0788.
With TATTGGGA the “PBM E-score” value was 0.103.
With AGATTTTA the “PBM E-score” value was 0.161.
For AGACTCAG, the “PBM E-score” value was -0.172.
AGGACTGC was tested, and the “PBM E-score” value was -0.334.
CCCGATTA was tested, and the “PBM E-score” value was 0.119.
In the case of CACCGATG, the “PBM E-score” value is reported as -0.0699.
CTTCGGGC was tested, and the “PBM E-score” value was -0.277.
GGTACTAC was tested, and the “PBM E-score” value was 0.0945.
For GCGAAGCA, the “PBM E-score” value was -0.0654.
With AGTGGCAT the “PBM E-score” value was -0.231.
For CCACTAAG, the “PBM E-score” value was -0.0452.
In the case of CGCAGTTC, the “PBM E-score” value is reported as 0.0497.
AGTAGCCC was tested, and the “PBM E-score” value was -0.115.
CGGACTAA was tested, and the “PBM E-score” value was 0.454.
AGTTTTGC was tested, and the “PBM E-score” value was 0.237.
AGGGATGG was tested, and the “PBM E-score” value was -0.112.
With TAGCTAAA the “PBM E-score” value was 0.0954.
For GGGAAGAC, the “PBM E-score” value was -0.21.
With ACGACGCA the “PBM E-score” value was 0.172.
AATCCCCA was tested, and the “PBM E-score” value was -0.171.
In the case of CACACCAG, the “PBM E-score” value is reported as -0.21.
With CTGCACAG the “PBM E-score” value was -0.0731.
In the case of CCGGAGAC, the “PBM E-score” value is reported as 0.328.
For ACAGACCA, the “PBM E-score” value was -0.0212.
With ATAGAACC the “PBM E-score” value was -0.0264.
For CAGAGGAC, the “PBM E-score” value was -0.157.
In the case of ACTAGTAT, the “PBM E-score” value is reported as 0.22.
GTGGGCGA was tested, and the “PBM E-score” value was -0.14.
In the case of GTATTCGA, the “PBM E-score” value is reported as -0.143.
ACGGATCT was tested, and the “PBM E-score” value was 0.08.
For CCATGAAA, the “PBM E-score” value was 0.109.
With CTAGCCAC the “PBM E-score” value was -0.328.
For GCGTTGTA, the “PBM E-score” value was 0.0819.
ACTGAAAA was tested, and the “PBM E-score” value was 0.202.
In the case of ATCACCAG, the “PBM E-score” value is reported as -0.0754.
In the case of GGTAGTCA, the “PBM E-score” value is reported as -0.176.
For CGCGGATA, the “PBM E-score” value was 0.187.
With ACGCCTCG the “PBM E-score” value was -0.115.
CTTAGCTA was tested, and the “PBM E-score” value was -0.0175.
With CTTCTCTC the “PBM E-score” value was -0.0216.
TAAAGAAA was tested, and the “PBM E-score” value was 0.301.
AGCTACGC was tested, and the “PBM E-score” value was -0.142.
In the case of ACGAACGC, the “PBM E-score” value is reported as 0.101.
In the case of ACGTTAGG, the “PBM E-score” value is reported as -0.1.
For AGTAGCAC, the “PBM E-score” value was -0.176.
In the case of TCATGGAA, the “PBM E-score” value is reported as 0.0642.
For GGAACTCA, the “PBM E-score” value was -0.0534.
ACATGGGT was tested, and the “PBM E-score” value was -0.0432.
For TCATAGGA, the “PBM E-score” value was 0.131.
In the case of AAGGATAG, the “PBM E-score” value is reported as 0.239.
In the case of CTGACCGC, the “PBM E-score” value is reported as -0.114.
With ACAAGGGT the “PBM E-score” value was 0.00132.
With AAAGTGAT the “PBM E-score” value was 0.188.
For CACATTAA, the “PBM E-score” value was 0.133.
TAGATCAA was tested, and the “PBM E-score” value was 0.069.
CAATCTGG was tested, and the “PBM E-score” value was -0.132.
GATACCCA was tested, and the “PBM E-score” value was -0.0714.
With AACGCTCC the “PBM E-score” value was -0.165.
In the case of GACCCACC, the “PBM E-score” value is reported as -0.133.
For ACTAAAGC, the “PBM E-score” value was 0.0875.
In the case of GCACGATA, the “PBM E-score” value is reported as 0.0354.
AAAGCGTA was tested, and the “PBM E-score” value was -0.00747.
With ACCTCTCT the “PBM E-score” value was -0.237.
ATCAGGCA was tested, and the “PBM E-score” value was -0.0421.
In the case of GCATGTAA, the “PBM E-score” value is reported as -0.126.
For AGCCTGAC, the “PBM E-score” value was -0.0975.
For AAACAGCC, the “PBM E-score” value was 0.0135.
In the case of ATGATTGG, the “PBM E-score” value is reported as 0.112.
With GCTACGAA the “PBM E-score” value was -0.0184.
ACTCATCC was tested, and the “PBM E-score” value was 0.023.
With CATACCTC the “PBM E-score” value was -0.0271.
With CACGTATA the “PBM E-score” value was 0.154.
In the case of CGTCCGGA, the “PBM E-score” value is reported as 0.27.
ACGTCTAT was tested, and the “PBM E-score” value was -0.0918.
In the case of CCTGGGCA, the “PBM E-score” value is reported as -0.221.
With ATTAAGCG the “PBM E-score” value was -0.00022.
In the case of CATCGGAC, the “PBM E-score” value is reported as 0.37.
With AGCTATGA the “PBM E-score” value was 0.0408.
With AAATCTGA the “PBM E-score” value was 0.0938.
In the case of GCGGTGAA, the “PBM E-score” value is reported as -0.0961.
In the case of TAACCTCA, the “PBM E-score” value is reported as 0.0853.
For GGCAAACC, the “PBM E-score” value was -0.0821.
AGCGTTCA was tested, and the “PBM E-score” value was -0.184.
CCATCAAG was tested, and the “PBM E-score” value was -0.155.
For ACCATCCA, the “PBM E-score” value was -0.121.
In the case of AGAAAACG, the “PBM E-score” value is reported as 0.112.
In the case of GGACTCCA, the “PBM E-score” value is reported as 0.178.
In the case of CCCCATGA, the “PBM E-score” value is reported as -0.145.
With CCGACACA the “PBM E-score” value was -0.0787.
With ATTATATA the “PBM E-score” value was 0.337.
In the case of AGGCCGCA, the “PBM E-score” value is reported as -0.245.
CGATATCA was tested, and the “PBM E-score” value was 0.0495.
With GCCGGTGA the “PBM E-score” value was -0.00679.
With AATCGCCG the “PBM E-score” value was 0.0778.
For CACCGTCC, the “PBM E-score” value was -0.21.
In the case of ACTGTTCA, the “PBM E-score” value is reported as -0.0168.
AGGTCCAT was tested, and the “PBM E-score” value was 0.0646.
With CACTCACA the “PBM E-score” value was -0.118.
In the case of TCGCTAAA, the “PBM E-score” value is reported as -0.0213.
With AACGCAGC the “PBM E-score” value was -0.0953.
For AAGGTAGT, the “PBM E-score” value was -0.0208.
For AAGCGACA, the “PBM E-score” value was -0.123.
With CGCTTGAG the “PBM E-score” value was 0.0364.
For AGGAACTC, the “PBM E-score” value was 0.0307.
In the case of GACACATA, the “PBM E-score” value is reported as 0.133.
AGTAACGA was tested, and the “PBM E-score” value was 0.196.
In the case of AATTTCGT, the “PBM E-score” value is reported as 0.168.
In the case of AGATAAAA, the “PBM E-score” value is reported as 0.237.
ACGTATGG was tested, and the “PBM E-score” value was -0.0677.
In the case of ACTGTCTA, the “PBM E-score” value is reported as -0.0775.
ACTTCAAG was tested, and the “PBM E-score” value was 0.0849.
For AGGGCAAG, the “PBM E-score” value was -0.0991.
For ATACGATG, the “PBM E-score” value was 0.206.
In the case of AACAGGGG, the “PBM E-score” value is reported as -0.102.
GCTTCGCA was tested, and the “PBM E-score” value was -0.197.
With GAGCGAGC the “PBM E-score” value was -0.127.
With ATGAACAC the “PBM E-score” value was 0.0355.
For ACGAAAAT, the “PBM E-score” value was 0.177.
For GCAAAGAA, the “PBM E-score” value was 0.0524.
For AAAAATTT, the “PBM E-score” value was 0.281.
For CACAGCCC, the “PBM E-score” value was -0.344.
GTGAAGGA was tested, and the “PBM E-score” value was -0.00442.
CAAACCGA was tested, and the “PBM E-score” value was -0.0148.
For ACAATAGG, the “PBM E-score” value was 0.13.
For ACCAGAGG, the “PBM E-score” value was -0.258.
AATGCATA was tested, and the “PBM E-score” value was 0.0656.
AATAAAGA was tested, and the “PBM E-score” value was 0.262.
AGCGGTAA was tested, and the “PBM E-score” value was 0.0362.
With ACTATACG the “PBM E-score” value was 0.122.
With AGTTAGCA the “PBM E-score” value was 0.0541.
With ATAGGCAC the “PBM E-score” value was -0.198.
With ATCGTGGG the “PBM E-score” value was -0.0771.
For AGCCCGAT, the “PBM E-score” value was 0.0163.
For TGTCCCAA, the “PBM E-score” value was -0.0997.
CGTATCTC was tested, and the “PBM E-score” value was 0.093.
For ATAGTCTG, the “PBM E-score” value was -0.0537.
With AGTGCGAG the “PBM E-score” value was -0.088.
For AGAGGCCA, the “PBM E-score” value was -0.167.
With GACTCCTC the “PBM E-score” value was 0.0705.
For CCGGGATC, the “PBM E-score” value was -0.0467.
For TCGTCTAA, the “PBM E-score” value was -0.0384.
GACAGGGC was tested, and the “PBM E-score” value was -0.368.
ATAGCGAG was tested, and the “PBM E-score” value was 0.068.
In the case of GACTGGGA, the “PBM E-score” value is reported as -0.0219.
For AGGTCAAA, the “PBM E-score” value was -0.0588.
For CTCGTCGC, the “PBM E-score” value was -0.198.
In the case of ACTCAGCA, the “PBM E-score” value is reported as -0.138.
CTCCCAAC was tested, and the “PBM E-score” value was -0.209.
In the case of AAGAGTGA, the “PBM E-score” value is reported as -0.0722.
TCTCCAGA was tested, and the “PBM E-score” value was -0.212.
CTACCAAA was tested, and the “PBM E-score” value was 0.138.
In the case of AGAACACT, the “PBM E-score” value is reported as 0.00366.
For GCGTCATA, the “PBM E-score” value was 0.0968.
For GGTTGCTA, the “PBM E-score” value was -0.0336.
In the case of ACCTGTGC, the “PBM E-score” value is reported as -0.232.
With GTCTTCGA the “PBM E-score” value was -0.00848.
For CGAGTGAG, the “PBM E-score” value was 0.0764.
AGAAAGTC was tested, and the “PBM E-score” value was 0.232.
